Measurements as given in ChEMBL document CHEMBL4888484, “Replenishing the malaria drug discovery pipeline: Screening and hit evaluation of the MMV Hit Generation Library 1 (HGL1) against asexual blood stage Plasmodium falciparum ,using a nano luciferase reporter read-out” (2022).
Out of some 150,000 compounds screened, about 540 (0.36%) showed an effect of 50% or more. Some of the results follow.

Tested on: Plasmodium falciparum
Assay: Primary screen in NF54 nanoGlo assay, in single point, at 2uM, 72h; a lower Z score goes with more inhibition
Format: functional, Erythrocyte
Details: timepoint 72 hour

Row | SMILES | % Inhibition [%] | Z score
1 | COc1ccccc1Oc1nc(N2CCC(C)CC2)nc2c1CN(C(=O)Nc1ccccc1)CC2 | -17 | 2.35
2 | CC1(C)C[C@H](NCc2cc(C(N)=O)c3n2CCCC3)c2ccccc21 | 5 | -0.67
3 | COCCCN(CC(=O)N(CCc1c[nH]c2ccccc12)Cc1ccc(Cl)cc1)C(=O)c1cccc(Br)c1 | -11 | 1.98
4 | CCOC(=O)CNC(=O)N1CCCn2nc(-c3ccc(C)c(C)c3)cc2C1 | -12 | 1.3
5 | CCCN1C[C@@H](C(=O)N2CCn3cncc3C2)CCC1=O | 0 | -0.01
6 | Cc1nc(CNC(=O)N(C)C[C@H](C)c2nccs2)c(C)s1 | -2 | 0.32
7 | C[C@H](CO)N(C)S(=O)(=O)c1c(O)cccc1OC(F)(F)F | -6 | 0.63
8 | O=C(Nc1ccc(F)c(Cl)c1)[C@H]1Nc2cc(C(F)(F)F)ccc2S(=O)(=O)N1 | -9 | 1.65
9 | CCCCc1nc(CN2CCC[C@H](C(=O)c3cccc(OC(C)C)c3)C2)c[nH]1 | -3 | 0.36
10 | CC(C)N1CCC(N2CCN(Cc3nc4c(s3)CCCC4)C[C@@H]2CCO)CC1 | -5 | 0.55
11 | CC(C)(C)n1nccc1NC(=O)Nc1ccn(Cc2ccncc2)n1 | -6 | 1.19
12 | Cn1cc(S(=O)(=O)N2C3CCC2CC(Oc2cccnc2)C3)cn1 (centres undefined) | -8 | 1.21
13 | O=C(NC1CC[C@H]2CN(Cc3ccccc3)C[C@H]2C1)c1cccnn1 (some centres undefined) | -8 | 1.01
14 | CC1CC1C(=O)Nc1nc2ccccc2n1-c1ccn(C)n1 (centres undefined) | -11 | 1.42
15 | O=C(CN(Cc1ccccc1)C1CC1)Nc1ccc(N2CCOCC2)cc1 | 8 | -1.13
16 | Cc1nc(CNC(=O)Nc2nc3c(s2)CCC3(C)C)no1 | -6 | 0.82
17 | CC1(C)CCC[C@@H]1NC(=O)c1cc(Cl)c2c(c1)OCCCO2 | -6 | 0.95
18 | O=C(c1ccccc1)N1CCCCC[C@H]1c1nc(C2CC2)no1 | -4 | 0.74
19 | Cc1ccc(NC(=O)c2c(C)sc3ncnc(N4CCCCCC4)c23)c(C)c1 | -9 | 0.99
20 | COc1ccc(-c2nc3n(n2)C2(CCCCC2)[C@@H]2CCCC[C@@H]2N3C(=O)c2ccc(F)cc2)cc1 | -27 | 2.36
21 | CCOC(=O)c1cnc2c(F)c(F)ccc2c1OCc1ncnn1C | -10 | 1.83

Row | SMILES | % Inhibition [%] | Z score
22 | CCn1c(CN2CCC[C@H]2c2cnn(C)c2)nc2cc(F)ccc21 | -1 | 0.1
23 | Cc1cc(CCNC(=O)N2CC[C@H](CN3CCCC3)C2)cc(C)c1O | -1 | 0.11
24 | CCN=C(NCCc1nc(C(C)C)no1)N1CCN(C2CC2)C(=O)C1 | -13 | 1.13
25 | COc1ccccc1-c1ncc(CN(C)Cc2ccncc2C)cn1 | -18 | 2.66
26 | COCCN1CC2(CCN(C(=O)c3ccccc3Cl)CC2)[C@H]1c1ccncc1 | -3 | 0.57
27 | Cc1n[nH]c(=O)c2c1cnn2-c1ccc(F)cc1 | 20 | -2.53
28 | CC(C)Oc1cc(NC(=O)NCc2noc3c2COCC3)ccn1 | 2 | -0.35
29 | CC(C)[C@H](NS(=O)(=O)c1ccc(-c2cc(C(F)(F)F)[nH]n2)o1)c1nccn1C | -10 | 1.38
30 | Cc1nnc(CC2CCN(C(=O)c3ccc4ccccc4n3)CC2)[nH]1 | -15 | 2.2
31 | CC(C)n1cc(NC(=O)NCc2cnn3cccnc23)nn1 | -10 | 1.55
32 | O=C(Nc1ccc(N2CCCCC2)cn1)c1cnccn1 | -7 | 1.11
33 | Cc1ccc([C@@H](C)CCN2CCC3(CCC(=O)N(CCc4c[nH]cn4)C3)CC2)o1 | -16 | 2.11
34 | Nc1c(F)cc(Cl)cc1C(=O)NCc1ccn2ccnc2c1 | 8 | -0.75
35 | CC1CCCN(C(=O)C(Cc2ccccc2)NC(=O)c2ccccc2)C1 (centres undefined) | 0 | 0.03
36 | Cc1ccc(CN(C(=O)N[C@@H](C)c2ncnn2C)C2CCCC2)s1 | -20 | 1.73
37 | O[C@H](Cn1nnc2cc(Cl)c(Cl)cc21)CC(F)(F)F | -8 | 1.61
38 | O=C1CCCN1CC[C@H]1CCCCN1S(=O)(=O)Cc1ccccc1 | -12 | 1.5
39 | COc1ccccc1CNC(=O)Cn1nc2ccc(-c3ccc(C)c(C)c3)nn2c1=O | -13 | 1.62
40 | Cc1cc(CN2CCN(CC(=O)Nc3c(C#N)c(C)c(C)n3C[C@H]3CCCO3)CC2)no1 | -39 | 4.59
41 | COc1ccc(CN2CC[C@H](NC(=O)c3cccnc3)[C@@H](O)C2)cc1Cl | -4 | 0.85
42 | Nc1nccnc1C(=O)Nc1ccc2c(c1)CCC2 | -7 | 1.43

Row | SMILES | % Inhibition [%] | Z score
43 | CNC(=O)c1noc(CNC(=O)[C@@H]2CCCN2C(=O)C2CCCCC2)n1 | -12 | 1.81
44 | COc1ccc2[nH]c(CN3CCCC[C@H](N(C)C)C3)c(C)c2c1 | -11 | 2.03
45 | CCOC(=O)N1CCN(C(=O)c2ccc(NS(=O)(=O)c3ccc(C)cc3)cc2)CC1 | -5 | 0.82
46 | CC(C)C[C@H](NC(=O)c1cccn1C1CC1)c1cccnc1 | -8 | 0.94
47 | CN(CCOc1ccccc1)C1CCCCC1S(C)(=O)=O (centres undefined) | -6 | 0.72
48 | O=C(C1CCN(S(=O)(=O)c2ccc(Cl)cc2)CC1)N1CC[C@@]2(O)CCCC[C@H]2C1 | -13 | 1.69
49 | CO[C@@]12CC[C@@H](OCC3CC3)C[C@@H]1N(c1nnc(C)s1)CC2 | 0 | 0.06
50 | CN1CCN(c2ccc(N3CCC(N4CCCCCC4)CC3)cc2)C1=O | -8 | 1.14
51 | Cc1cccc(C2c3cc(OC(C)C(=O)NC4CC4)ccc3CCN2C(=O)c2ccccc2)c1 (centres undefined) | 28 | -3.17
52 | CC(C)COc1cc(NC(=O)[C@@H]2CCO[C@H]2C2CC2)ncn1 | -1 | 0.23
53 | O=C1CCC(CC(=O)N2CCCC3CCCC32)CC1 (centres undefined) | -1 | 0.18
54 | O=S(=O)(c1cn[nH]c1)N1C[C@@H]2CC[C@@H](C2)C1 | -7 | 0.95
55 | COc1ccc(-c2nn(-c3ccc(C(F)(F)F)cc3)c(N)c2NC(=O)NCc2ccccn2)cc1 | -4 | 0.58
56 | O=C(c1cccc(-n2ccnc2)c1)N(C[C@H]1CCCO1)C1CCCC1 | -10 | 0.98
57 | Cn1c(C(F)(F)F)nc2cncc(C(=O)N3C[C@H]4CCC[C@H]4C3)c21 | -5 | 0.62
58 | CCNC(=O)N1CC[C@H](NC(=O)Nc2cccc(C)c2Cl)C1 | 5 | -0.71
59 | CNC(=O)[C@@H]1C[C@H](Oc2ccccc2)CN1C1CCN(C(=O)CCc2c[nH]c3ccccc23)CC1 | -7 | 0.87
60 | COc1ccc(CNC(=O)c2ccc(CN3CCOCC3)cc2)cc1OC | -1 | 0.12
61 | CC(C)(C)OC(=O)NCCC[C@H](NCC#N)c1ccccc1 | -4 | 0.69
62 | O=C(N1CCOCC1)N1CCC[C@H]1c1nc(-c2ccccc2)no1 | -12 | 1.37
63 | Cn1cc([C@@H](O)CNC(C2CCCC2)C2CCCC2)cn1 | 16 | -2.88

Row | SMILES | % Inhibition [%] | Z score
64 | CCS(=O)(=O)CCNC(=O)c1ccnc(C(C)C)n1 | -4 | 0.73
65 | CCN(C(=O)c1cnc([C@@H]2CCCO2)s1)c1cccc(F)c1 | -11 | 1.08
66 | CC(=O)Nc1ccc(C(=O)N2CCCCCC2)o1 | 0 | 0.04
67 | O=C(c1ccc(F)cc1Cl)N1C2CCC1CC(n1nccn1)C2 (centres undefined) | -5 | 0.72
68 | Cc1[nH]nc(NC(=O)c2ccoc2)c1-c1cccc(Br)c1 | -7 | 1.03
69 | Cc1cc(=O)n(Cc2nc(-c3cccnn3)no2)c2ccccc12 | -8 | 1.37
70 | CCn1c(=O)n([C@@H]2CCN(CCC(C)C)C2)c2ncccc21 | -7 | 0.93
71 | Cc1nc(CCCC(=O)N[C@@](C)(CO)C2CC2)cs1 | -4 | 0.51
72 | CC(=O)c1ccc(S(=O)(=O)N2CCC[C@@H]2Cn2nccn2)cc1 | -11 | 2.04
73 | OCC[C@H]1CN(C/C=C/c2ccc(F)cc2)CCN1CC1CCCCC1 | 13 | -1.64
74 | CN(Cc1cn2ccccc2n1)[C@H]1COC[C@@H]1O | -2 | 0.45
75 | Cc1cccc(-c2ccc3nc(-c4ccc(F)cc4)c(CN4CCN(S(=O)(=O)c5cccc6cccnc56)CC4)n3c2)c1 | -7 | 0.79
76 | c1ccc(CN2CC[C@@]3(C2)NCCc2[nH]cnc23)cc1 | -27 | 2.38
77 | CCc1noc(C)c1CN[C@H](CO)C(C)C | -14 | 1.77
78 | Cn1cnc(NC(=O)[C@@H]2CCc3cc(F)ccc32)n1 | 0 | 0
79 | Cc1nc(C)c(C(=O)[C@H](C#N)c2ccc(C(F)(F)F)cn2)s1 | -8 | 1.13
80 | CN(C)c1nsc(-c2ccc(C(=O)NCc3nnc4n3CCC4)cc2)n1 | -15 | 1.96
81 | CC(=O)Nc1ccc(S(=O)(=O)N2C[C@@H]3C[C@H](C2)c2ccc(-c4ccccc4CN4CCOCC4)c(=O)n2C3)cc1 | 31 | -3.54
82 | CCn1ncc(C(=O)NC[C@H]2CCCC(C)(C)O2)n1 | -9 | 1.04
